Experimental data taken from PubChem BioAssay AID1476 (National Center for Advancing Translational Sciences (NCATS), 2009).
The whole screen tested about 200,000 compounds, of which about 4,500 (2.2%) were called active. Inconclusive means that the source gave no clear call. Such entries were picked first, then a sample of the others. Calls come from the whole dose curve; as a rule, active = well fitted inhibition curve with a large enough effect; inconclusive = small, poorly fitted or top-dose-only effect, or effect the other way; inactive = flat fitted curve, though single readings scatter. Potencies beside an inconclusive call are fits to weak or partial responses and may not hold up.

target: Cruzipain (Trypanosoma cruzi) (UniProt P25779); assay: qHTS Assay for Promiscuous and Specific Inhibitors of Cruzain (without detergent); settings: purified cruzain, Z-FR-AMC fluorescence, no detergent; note: nearly all actives have a fitted effect of over 40% in size;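 for max response, negative = inhibition: plate controls were enzyme without inhibitor for no effect and buffer without enzyme for full effect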
Chain of UniProt P25779 (P25779 whole entry, looked up): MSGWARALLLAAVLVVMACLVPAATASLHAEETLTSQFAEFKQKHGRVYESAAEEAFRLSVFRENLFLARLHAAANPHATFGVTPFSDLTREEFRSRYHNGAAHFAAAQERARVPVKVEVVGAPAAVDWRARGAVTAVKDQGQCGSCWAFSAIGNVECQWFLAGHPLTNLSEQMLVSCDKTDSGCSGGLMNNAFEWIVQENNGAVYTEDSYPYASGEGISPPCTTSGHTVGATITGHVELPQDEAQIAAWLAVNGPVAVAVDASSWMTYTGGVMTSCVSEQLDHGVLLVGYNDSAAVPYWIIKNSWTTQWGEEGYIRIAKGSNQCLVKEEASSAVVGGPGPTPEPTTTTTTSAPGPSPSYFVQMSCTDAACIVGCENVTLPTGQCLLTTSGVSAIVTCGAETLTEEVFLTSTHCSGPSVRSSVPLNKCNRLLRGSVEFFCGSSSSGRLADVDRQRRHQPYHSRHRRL
Method in brief: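 Detergent-free condition (0.00005% Triton X-100) in acetate buffer pH 5.5 with DTT. 1.5 nM enzyme and compound were pre-mixed 15 min, then 2 uM Z-FR-AMC substrate added; reaction progress from fluorescence change between first and third reads (60 s).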
Potency is the fitted concentration of half-maximal effect; tags give direction and shape of the fitted curve.

| Structure (SMILES) | Potency | max response, negative = inhibition |
| --- | --- | --- |
| CN(CCOc1ccc(-c2ccn(S(=O)(=O)c3c(Cl)cccc3Cl)n2)cc1)c1ccccn1 | inconclusive: 39.8 µM [inhibitor, single point] |  |
| COc1ccc(Nc2nnc(-c3ccc(C)c(S(N)(=O)=O)c3)c3ccccc23)cc1 |  | inactive: -7.85% |
| CCc1ccc(-c2nc(SCC(=O)NCCOC)c(-c3ccc(C)cc3)[nH]2)cc1 |  | inactive: -1.22% |
| CCc1ccc(CN2CCc3nc(Nc4ccc5c(c4)OCCO5)ncc3C2)cc1 |  | inactive: -13.4% |
| COc1ccc(NC(=O)N2CCN(c3nc(-c4cccc(OC)c4)cs3)CC2)cc1 | inconclusive: 25.1 µM [inhibitor, partial curve] |  |
| CCOc1cc(/C=C(/C#N)c2nc3ccccc3[nH]2)ccc1OCc1ccc(C(=O)O)o1 | inconclusive: 39.8 µM [activator, single point] |  |
| Cc1ccc2ncc3c(-c4ccccc4)nn(CC(=O)NC4CCCCC4)c3c2c1 |  | inactive: -1.18% |
| Cc1ccc(C(C[N+](=O)[O-])n2nc(C)cc2C)cc1 (stereo not given) | inconclusive: 3.16 µM [inhibitor, partial curve, poor fit] |  |
| COc1ccc(NC(=O)CSc2nnc(Cc3cccn3C)n2CCc2ccccc2)c(OC)c1 | inconclusive: 39.8 µM [activator, single point] |  |
| O=C(CN1CCOCC1)Nc1ncc(Cc2cccc(Cl)c2Cl)s1 | inconclusive: 39.8 µM [activator, single point] |  |
| COc1ccc(S(=O)(=O)Nc2cc(-c3cn4ccccc4n3)ccc2C)cc1 | inconclusive: 25.1 µM [activator, partial curve, poor fit] |  |
| Cc1ccc(CN(C(=O)COc2ccc(C)c(C)c2)C2CCS(=O)(=O)C2)o1 (stereo not given) | inconclusive: 20 µM [activator, single point] |  |
| CC1Cc2ccccc2N1C(=O)CN1C(=O)C(=O)N(Cc2ccccc2)C1=O (stereo not given) | inconclusive: 39.8 µM [inhibitor, single point] |  |
| CCOc1ccc(-n2c(=O)c3c(C)c(C(=O)N(C)C)sc3n(CC(=O)Nc3c(C)cc(C)cc3C)c2=O)cc1 |  | inactive: -1.99% |
| O=C(NC(Nc1cc(C(F)(F)F)ccc1Cl)C(=O)c1ccccc1)c1ccccc1 (stereo not given) | inconclusive: 25.1 µM [inhibitor, single point] |  |
| CC(C)(C)c1ccc(Oc2cccc(C3CC(=O)C(C4NCCc5ccccc54)C(=O)C3n3cncn3)c2)cc1 (stereo not given) | inconclusive: 31.6 µM [activator, partial curve] |  |
| CC(C)N(C(=O)Cn1cc(S(=O)(=O)Cc2ccc(C(F)(F)F)cc2)c2ccccc21)C(C)C |  | inactive: 11% |
| Cc1ccc(-c2csc(NC(=S)NC(=O)c3cc4ccccc4o3)n2)cc1 | active: 6.31 µM |  |
| Oc1cccc2ccc(SSc3ccc4cccc(O)c4n3)nc12 |  | inactive: -3.47% |
| CCc1cccc2sc(NC(=O)c3ccc(N4C(=O)CCC4=O)cc3)nc12 | active: 7.94 µM |  |

| Structure (SMILES) | Potency | max response, negative = inhibition |
| --- | --- | --- |
| CCn1nc(-c2ccccc2)c(-c2ccccc2)c(C(=O)OCCOC)c1=O |  | inactive: 27.5% |
| Cc1cccc(NC(=S)N/N=C2/CCCCc3ccccc32)c1 | inconclusive: 25.1 µM [inhibitor, single point] |  |
| COc1ccc(-c2cc(C(=O)Nc3c(C)nn(Cc4ccc(F)cc4)c3C)no2)cc1OC | inconclusive: 39.8 µM [activator, single point] |  |
| CCOCCCNC(=O)CCc1nnc2ccc(N3CCN(c4cccc(OC)c4)CC3)nn12 | inconclusive: 39.8 µM [activator, single point] |  |
| CCOC(=O)c1ccccc1NC(=O)CCc1c(C)nc2ncnn2c1C |  | inactive: 8.13% |
| Cc1ccc(NC(=O)c2cn(CCC#N)nc2-c2ccc3c(c2)OCCO3)c([N+](=O)[O-])c1 | inconclusive: 39.8 µM [activator, single point] |  |
| CCOc1ccccc1NC(=O)C(C)Sc1nc2c(c(=O)[nH]1)CCCC2 (stereo not given) |  | inactive: 19.4% |
| CC(C)OCCCN1C(=O)c2[nH]nc(-c3ccccc3O)c2C1c1ccc(OCc2ccccc2)cc1 (stereo not given) | inconclusive: 39.8 µM [inhibitor, single point] |  |
| Cc1ccc(C(=O)CN2CCC(NC(=O)C3CCCCC3)CC2)cc1 | inconclusive: 15.8 µM [inhibitor, partial curve] |  |
| Cc1ccc(CC(=O)Nc2c(C(=O)N3CCN(c4ccccc4F)CC3)oc3ccccc23)cc1 | inconclusive: 31.6 µM [activator, single point] |  |
| C/C(=N/NC(=O)c1ccc(C)s1)c1cccc(NC(=O)COc2ccc(Cl)cc2Cl)c1 | active: 12.6 µM |  |
| Cc1occc1-c1nnc(SCC(=O)NCCc2ccccc2)n1Cc1ccccc1 | inconclusive: 25.1 µM [activator, single point] |  |
| Cc1ccc(S(=O)(=O)N(C)c2ccc(OCC(=O)Nc3nc(-c4ccccc4)cs3)cc2)cc1 | active: 7.94 µM |  |
| Cc1cc(N2CCC(C)CC2)nc2ccc(NC(=O)CCC(=O)N3CCN(c4cccc(C(F)(F)F)c4)CC3)cc12 | inconclusive: 39.8 µM [inhibitor, single point] |  |
| COc1cc(Cl)c(C)cc1NC(=O)CN1c2ccccc2S(=O)(=O)c2ccccc21 | active: 25.1 µM |  |
| CCOC(=O)N1CCN(C(=O)c2ccc(N(Cc3ccccc3)S(C)(=O)=O)cc2)CC1 | inconclusive: 31.6 µM [activator, single point] |  |
| O=S(=O)(Nc1ccc(-c2ccc(N3CCCC3)nn2)cc1)c1ccc(Br)cc1 | inconclusive: 39.8 µM [inhibitor, single point] |  |
| COc1ccccc1-c1nn(CCC(=O)Nc2cccc(C(C)=O)c2)c2nc(C)cc(C)c12 | inconclusive: 39.8 µM [activator, single point] |  |
| Cc1cc(C)c2[nH]c(=O)c(C(c3nnnn3CC3CCCO3)N3CCC(C)CC3)cc2c1 (stereo not given) | inconclusive: 39.8 µM [activator, single point] |  |
| COc1cccc(NC(=O)c2cn(C3CCCCC3)c(=O)c3c2c2ccccc2n3C)c1 | inconclusive: 15.8 µM [inhibitor, partial curve] |  |
